Measured values taken from the BET-seq Pho4 binding data (Le et al. 2018).
The list shows a part of the results. These are noisy estimates, calculated here from bound and input reads.

molecular target: T1, Pho4 (S. cerevisiae) (UniProt P07270); assay: relative binding free energy (BET-seq); higher = weaker binding; settings: reference: library average
T1 sequence: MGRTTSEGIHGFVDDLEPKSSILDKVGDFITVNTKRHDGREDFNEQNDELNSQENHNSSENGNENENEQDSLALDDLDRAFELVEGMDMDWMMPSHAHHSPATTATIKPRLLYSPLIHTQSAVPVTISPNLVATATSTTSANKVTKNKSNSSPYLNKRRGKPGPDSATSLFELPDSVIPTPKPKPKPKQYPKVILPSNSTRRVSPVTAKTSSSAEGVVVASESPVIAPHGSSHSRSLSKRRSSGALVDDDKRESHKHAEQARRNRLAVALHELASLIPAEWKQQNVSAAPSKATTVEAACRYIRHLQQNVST

Sequence | relative binding free energy
TATGTCACGTGTGGTC | 0.15 kcal/mol
GCTAACACGTGAGGGG | 0.12 kcal/mol
GGTGTCACGTGCTTTT | 0.11 kcal/mol
CAAATCACGTGTGGGT | 0.16 kcal/mol
TGGGTCACGTGGTGGA | 0.14 kcal/mol
TGGCACACGTGGATGG | 0.08 kcal/mol
GGTAACACGTGAAGTG | 0.22 kcal/mol
ATGGGCACGTGACAGG | -0.1 kcal/mol
TTCGACACGTGAAGGG | 0.27 kcal/mol
GATGGCACGTGGTCAT | -0.21 kcal/mol
CGTTTCACGTGGAATG | 0.23 kcal/mol
GTGTGCACGTGGCGCG | 0.03 kcal/mol
GTTAACACGTGTTAGA | 0.14 kcal/mol
ATTAGCACGTGGCTAG | -0.12 kcal/mol
GTTGTCACGTGAGAAT | 0.39 kcal/mol
ATATACACGTGCGTTG | -0.04 kcal/mol
TTGGACACGTGTGTAA | 0.1 kcal/mol
TTGATCACGTGAGATG | 0.39 kcal/mol
GGAATCACGTGTTGGC | 0.16 kcal/mol
CTTATCACGTGGTTGC | 0.08 kcal/mol
TGGGGCACGTGGTTTT | 0.03 kcal/mol
CGTTTCACGTGGAGGA | 0.25 kcal/mol
TTTTTCACGTGGCTTC | 0.21 kcal/mol
TGTGGCACGTGGTGGG | -0.08 kcal/mol
GTCAGCACGTGGTTTA | -0.03 kcal/mol

Sequence | relative binding free energy
TGTGACACGTGTCTTA | -0.01 kcal/mol
ATGGTCACGTGGGCTT | -0.04 kcal/mol
GGTATCACGTGTATTT | 0.23 kcal/mol
GGATGCACGTGGTGCA | -0.14 kcal/mol
CTGGTCACGTGGTAGG | 0.03 kcal/mol
TCGTCCACGTGTGGGT | 0.09 kcal/mol
TTTGTCACGTGGCCTA | 0.04 kcal/mol
GTTAACACGTGGAGGC | 0.03 kcal/mol
TGGTGCACGTGGTTGC | -0.15 kcal/mol
ATGTGCACGTGCTGTT | -0.09 kcal/mol
AAGAGCACGTGTTTGA | -0.21 kcal/mol
GGGGGCACGTGGGGTC | -0.14 kcal/mol
GTGCGCACGTGAGTGG | 0.16 kcal/mol
TCAATCACGTGTATGG | 0.25 kcal/mol
ATTCGCACGTGGTGGT | -0.04 kcal/mol
CATAACACGTGGTGGG | -0.08 kcal/mol
TTGGGCACGTGGCGGG | -0.15 kcal/mol
TAAATCACGTGAAAGT | 0.32 kcal/mol
AGCGACACGTGGGGCG | -0.05 kcal/mol
AATGGCACGTGTACGT | 0 kcal/mol
TGCAGCACGTGGTTAG | -0.27 kcal/mol
GTGGACACGTGGAGTA | 0.05 kcal/mol
GGAACCACGTGTGGGG | -0.03 kcal/mol
TTGAACACGTGTGGGC | 0.14 kcal/mol
TGTTACACGTGCGAAG | 0.2 kcal/mol

Sequence | relative binding free energy
TGATGCACGTGTGGTA | -0.1 kcal/mol
CGGTTCACGTGGGCTG | 0.15 kcal/mol
TGTTACACGTGCAATT | 0.26 kcal/mol
AATTTCACGTGGTTGA | 0.15 kcal/mol
TTGTACACGTGATGGG | 0.11 kcal/mol
TTTGGCACGTGCGGAT | -0.18 kcal/mol
ACGTGCACGTGTTTGG | -0.14 kcal/mol
GTTGACACGTGGGTGA | -0.09 kcal/mol
ATAATCACGTGGAAGT | 0.16 kcal/mol
TTCATCACGTGTGTAT | 0.13 kcal/mol
TTCGGCACGTGCTTTG | -0.18 kcal/mol
GTGTACACGTGTAATA | 0.22 kcal/mol
GTATGCACGTGGTGAG | -0.14 kcal/mol
TTATGCACGTGGGCGG | -0.1 kcal/mol
AAGTGCACGTGTGAAG | -0.09 kcal/mol
TTGATCACGTGCGGGG | 0.1 kcal/mol
TGGTACACGTGGGGGA | -0.09 kcal/mol
GTAAACACGTGGGGTG | -0.15 kcal/mol
ATTTACACGTGAGTTG | 0.29 kcal/mol
CTGAGCACGTGTGATG | -0.03 kcal/mol
TATAGCACGTGCGGAT | -0.12 kcal/mol
ATACTCACGTGTTTTG | 0.08 kcal/mol
AATGGCACGTGCGTTG | -0.26 kcal/mol
TGAGTCACGTGAACTG | 0.29 kcal/mol
GTGTGCACGTGGATGT | 0.06 kcal/mol

Sequence | relative binding free energy
TGGAACACGTGGGTTA | -0.19 kcal/mol
GGGGGCACGTGTGCTC | -0.2 kcal/mol
GGGGACACGTGTCAAG | 0.06 kcal/mol
GGTAGCACGTGAGGGG | 0.27 kcal/mol
CGGTGCACGTGTTCGT | 0.03 kcal/mol
TGTTGCACGTGGTACT | 0 kcal/mol
ACTCTCACGTGGTGGT | 0.07 kcal/mol
GTTATCACGTGTCTGT | 0.2 kcal/mol
TTGTGCACGTGTCATA | 0.06 kcal/mol
TGTGGCACGTGTACGA | -0.17 kcal/mol
CTGATCACGTGTGAGT | 0.15 kcal/mol
GAAAACACGTGGTGGG | -0.06 kcal/mol
TGAAACACGTGCTTGG | 0.05 kcal/mol
GAAGGCACGTGGTCTA | -0.06 kcal/mol
TTATTCACGTGTGGTG | 0.28 kcal/mol
TCTGACACGTGTGGTT | -0.08 kcal/mol
TTAAGCACGTGGGCCT | -0.16 kcal/mol
TGTTACACGTGTTTGG | 0.17 kcal/mol
TTTTTCACGTGTGCTG | 0.28 kcal/mol
ATTGGCACGTGTGAGG | -0.03 kcal/mol
GTGGCCACGTGGGTCA | -0.19 kcal/mol
TCTGTCACGTGATTGT | 0.25 kcal/mol
GGGCGCACGTGGATCG | 0.03 kcal/mol
CCGGTCACGTGTGAGG | 0.15 kcal/mol
AATAACACGTGGATGG | 0.01 kcal/mol

Sequence | relative binding free energy
GTGGGCACGTGACTAG | 0.1 kcal/mol
TGGTGCACGTGGTCAC | -0.01 kcal/mol
TGTTACACGTGTGCAT | -0.04 kcal/mol
GCTGTCACGTGTTGAG | 0.24 kcal/mol
ATTGTCACGTGGGCCT | -0.02 kcal/mol
AAGTACACGTGGTTTA | 0.02 kcal/mol
TATATCACGTGAGTGC | 0.25 kcal/mol
TTCTGCACGTGTTGTT | 0.06 kcal/mol
ACGCGCACGTGTGGGT | -0.09 kcal/mol
TTGTGCACGTGGGCAC | -0.23 kcal/mol
TAATGCACGTGGTAAT | -0.03 kcal/mol
TGGGGCACGTGGAGTA | -0.17 kcal/mol
GTTTACACGTGAAGCG | 0.36 kcal/mol
TATAGCACGTGCATGT | -0.08 kcal/mol
AGGTGCACGTGAATTA | 0.2 kcal/mol
TATGCCACGTGGAGGT | -0.07 kcal/mol
GGGAACACGTGAGGAG | 0.28 kcal/mol
ATTGACACGTGTAGTT | 0.06 kcal/mol
AGTGGCACGTGAGTGC | -0.01 kcal/mol
TGATGCACGTGATGTC | 0.07 kcal/mol
TATTACACGTGGGATG | -0.1 kcal/mol
TTTACCACGTGGGTGT | -0.21 kcal/mol
TCTTTCACGTGCAGGT | 0.15 kcal/mol
CTAGTCACGTGGAGGA | 0.06 kcal/mol
CGGGACACGTGCAGGT | 0.02 kcal/mol

Sequence | relative binding free energy
ATTTGCACGTGTGTAT | 0.08 kcal/mol
GTATTCACGTGATGGA | 0.27 kcal/mol
AGTAGCACGTGAAGTG | 0.05 kcal/mol
AATTGCACGTGTTCAG | 0.06 kcal/mol
AGTAGCACGTGGGGCT | -0.24 kcal/mol
TATTTCACGTGACGTC | 0.38 kcal/mol
AATTGCACGTGCGTTG | -0.13 kcal/mol
TTGGTCACGTGTTCTG | 0.12 kcal/mol
GAGAGCACGTGAGGGT | 0.23 kcal/mol
TTGTCCACGTGTATCG | 0.07 kcal/mol
CGTGTCACGTGCTATT | 0.07 kcal/mol
GTGTTCACGTGTACTC | 0.34 kcal/mol
TTTCACACGTGGGTAA | -0.08 kcal/mol
ATTTCCACGTGCGTGG | -0.03 kcal/mol
TTATGCACGTGAGTAT | 0.2 kcal/mol
AGTGGCACGTGTGGGT | -0.14 kcal/mol
TAGTGCACGTGTGAGT | 0.05 kcal/mol
TTGTTCACGTGGGCTG | 0.12 kcal/mol
GAAGTCACGTGAAGTA | 0.4 kcal/mol
TTGTGCACGTGCTTCT | -0.13 kcal/mol
TAGGTCACGTGCTGGG | 0.09 kcal/mol
